Out of some 48,000 compounds screened, about 450 (0.94%) were called active. Roughly 19% stayed inconclusive and do not appear here. The call rests on the fitted dose curve; in most records, active means well fitted inhibition curve with a large enough effect; inconclusive means small, poorly fitted or top-dose-only effect; inactive means no such curve, though single readings can be large or run the other way. This is one part of the list.
Experiment: Primary qHTS for Identification of Small Molecule Inhibitors of Huntingtin Promoter Activity; further: nearly all actives have a fitted effect of over 50% in size
Conditions: HEK293 HTT promoter firefly luciferase reporter (activity 0% = vehicle and -100% = no light), 24 h; series mostly up to 57.5 µM; activity change, negative = inhibition: at the top concentration
In short: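 HEK293 luciferase promoter-reporter cells (2,500/well) plated 24 h, then compounds added at up to 57.5 uM final for 24 h at 37 °C. Firefly luminescence by Dual-Glo, normalized to vehicle (0%) and zero RLU (-100%).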

Activity change, negative = inhibition, inactive:
COc1ccccc1-c1nnc(C2CCN(C(=O)c3cccc(Cl)c3)CC2)o1 -18.1%
Cc1cccc(C(c2sc3nc(-c4ccco4)nn3c2O)N2CCN(Cc3ccccc3)CC2)c1 (stereo unspecified) 8.25%
CCOC(=O)c1ccccc1NC(=O)Cn1c(=O)n(CCC(=O)N2CCc3ccccc3C2)c(=O)c2ccccc21 -19.6%
COc1cc(NC(=O)c2cc(Cl)ccc2Cl)ccc1NC(=O)c1cc2ccccc2o1 -20.3%
COCCCNC(=O)c1[nH]c2ccccc2c1Sc1ccc(C)cc1 -20.5%
CN(C)c1ccc(CNC(=O)c2cnc3sc(N4CCCC4)nn3c2=O)cc1 -1.98%
CCS(=O)(=O)N1CCc2cc(C(=O)NCc3ccc(Cl)cc3)ccc21 -28.6%
COc1ccc(NC(=O)c2ccc3c(SCC(=O)O)c4c(nc3c2)CCCC4)cc1OC -13.5%
CC(=O)c1cccc(NC(=O)CSc2nnc3ccc(-c4ccc(F)cc4)nn23)c1 -2.35%
O=C(NCCc1ccccc1)c1cc(-c2ccc(Br)cc2)on1 -10.5% [at 11.5 µM]
CCOC(=O)c1c(C)oc2ncnc(N3CCN(c4ccc(C)cc4C)CC3)c12 -7.18%
CCOC(=O)c1cccc(-n2nnc3c(sc4nc(C)c(Br)c(C)c43)c2=O)c1 0.191%
Cc1sc2ncn(CC(=O)Nc3ccc(F)cc3Cl)c(=O)c2c1S(=O)(=O)N1CCN(c2ncccn2)CC1 -10.6%
Cn1c(=O)c2c(nc(Oc3ccc(C#N)cc3)n2Cc2ccc(Cl)cc2Cl)n(C)c1=O -2.13%
CCOC(=O)c1ccccc1NC(=O)Cn1c(=O)n(CCC(=O)NCc2ccccc2OC)c(=O)c2ccccc21 -18.6%
CCN1CCN(c2csc3ccc(F)cc3c2=O)CC1 6.37%
Cc1cccn2c(=O)cc(CSc3nnc(NC(=O)COc4ccc(F)cc4)s3)nc12 -7.22%
COc1ccc(-c2nc3scc(CCNS(=O)(=O)c4c(C)noc4C)n3n2)cc1OC -6.3%
COc1cccc(CNC(=O)c2[nH]c3cc(C)ccc3c2Sc2ccccc2)c1 26.7%
CCOC(=O)c1c(S(=O)(=O)NCC(=O)N2CCN(c3cccc(Cl)c3)CC2)c(C)n(C)c1C -11.1%
COc1ccccc1NC(=O)c1oc2ccccc2c1NC(=O)C(C)C -11.9%
Cc1cccc(NC(=O)CSc2nnc3scc(-c4ccccc4)n23)c1 -11.7%
O=C1CCc2cc(S(=O)(=O)NCc3ccc(Cl)cc3)cc3c2N1CC3 -13.3%
COc1cccc(-c2nnc(-c3cc4cc(Cl)ccc4oc3=O)o2)c1 -11.7% [at 11.5 µM]
COc1cc(-c2noc(CSc3nc(-c4ccc(F)cc4)cc(=O)[nH]3)n2)cc(OC)c1OC 2.61%
COc1ccccc1NC(=O)Cn1cnc2c(nc3n2CCCCC3)c1=O -3.37%
CCC1CCC(C(=O)NC(C(=O)NCCN(CC(C)C)CC(C)C)C(C)C)CC1 (stereo unspecified) -1.03%
Cc1ccccc1CNC(=O)c1ccccc1NC(=O)c1nsc2ccccc12 21.4%
O=C(Nc1ccc(Cl)c(C(F)(F)F)c1)C1CCCN(S(=O)(=O)c2cccc3cccnc23)C1 (stereo unspecified) -1.33%
O=c1c(N2CCN(c3cccc(C(F)(F)F)c3)CC2)csc2ccccc12 -18.5%
CC1CCN(S(=O)(=O)c2ccc3c(c2)c(=O)c(C(=O)NCc2ccc(Cl)cc2)cn3C)CC1 -20.4% [at 11.5 µM]
O=C(Nc1ccc(F)cc1)N1CCN(c2ccc3nnc(-c4ccc(F)cc4)n3n2)CC1 -14.7%
Cc1ccc(-n2nnc(-c3nsc(NC(=O)c4ccccc4C)n3)c2C)cc1Cl -17.3%
COc1ccc(-c2c3c(=O)n(C)c(=O)n(C)c3cn2-c2cccc(N)c2)cc1 -8.82%
COc1ccc(-c2cn3c(n2)sc2cc(C(=O)NCc4cccs4)ccc23)cc1 21.1%
COCCCNC(=O)c1[nH]c2cc(OC)ccc2c1Sc1ccc(C)cc1 -4.57%
CCn1cc(C(=O)NCCc2ccc(Cl)cc2)c(=O)c2cc(S(=O)(=O)N3CCc4ccccc4C3)ccc21 4.84%
Cc1nn(-c2ccccc2)c2c1N(CC(=O)NCc1ccc(N(C)C)cc1)C(=O)CS2 -24.1%
O=C(NCCOCCO)C(=O)Nc1c2c(nn1-c1ccc(F)cc1)CSC2 -9.99%
Cc1ccc2cc3cc(C(=O)N4CCN(c5cccc(C(F)(F)F)c5)CC4)sc3nc2c1 2.55%
CCC(=O)N1CCc2cc(S(=O)(=O)CCC(=O)N3CCN(c4ccccc4Cl)CC3)ccc21 0.43%
Cc1ccc(N(Cc2cccs2)C(=O)c2ccccc2)cc1 -21.6%
COc1ccc(-c2nc3ccc(NS(C)(=O)=O)cc3o2)cc1 85.7%
Clc1ccccc1Cn1cccc1C1=NC(Cc2ccccc2)CO1 (stereo unspecified) -5.28%
Cn1c(SCC(N)=O)nc2c([nH]c3ccccc32)c1=O 4.84%
O=C(O)c1ccc(Nc2nc(-c3ccccc3)c3cc(Br)ccc3n2)cc1 -18.7%
Cc1noc(/C=C/c2ccccc2F)c1S(=O)(=O)N1CCC(C(=O)N2CCOc3ccccc32)CC1 -7.67%
CCc1ccc(NC(=O)Cn2c(=O)n(CCC(=O)NCCc3ccc(Cl)cc3)c(=O)c3ccccc32)cc1 -10.3%
COc1ccc(C(=O)Nc2nc(-c3nnn(-c4ccc(C(C)C)cc4)c3C)ns2)cc1 -26.4%
COc1ccccc1CCNC(=O)C(C)Sc1nc(-c2ccccc2)cc(C(F)(F)F)n1 (stereo unspecified) -3.1%
O=C(Cn1ncn2c(cc3ccccc32)c1=O)NCc1ccc(F)cc1 -6.33%
COc1ccc(Nc2ncnc3c2nc2n3CCCCC2)cc1 17.2%
CCCOc1ccc(CNC(=O)c2[nH]c3cc(OC)ccc3c2Sc2ccccc2)cc1 -6.67%
COc1ccc(CCNC(=O)c2c(C)oc3ncn(C)c(=O)c23)c(OC)c1 0%
CC(=O)Nc1ccc(N(C(=O)Cn2nnc3ccccc32)C(C(=O)NCc2ccccc2)c2ccc(C)cc2)cc1 (stereo unspecified) -22.3%
Cc1ccc2[nH]c(=O)c3cc(C(=O)NCCCN4CCC(C)CC4)sc3c2c1 -25.2%
CCOC(=O)C(Cc1c[nH]c2ccccc12)NC(=O)COc1ccc(CC)cc1 (stereo unspecified) -18.7%
Cc1cc(NC(=O)CN2CCC(C)CC2)nc2c1c(=O)oc1ccccc12 12.3%
Cc1ccc(Cl)cc1NC(=O)CN1C(=O)CCc2ccccc21 -18.6%
CCOC(=O)c1c(C)[nH]c(C)c1S(=O)(=O)N1CCC(C(=O)NCc2ccccc2Cl)CC1 -31.6%
COc1ccc(CC(=O)NCc2nc3cccnc3n2Cc2ccccc2)cc1 -0.0029%
COC(=O)c1ccccc1NC(=O)CCCn1c(=O)c2cccn2c2cccnc21 -7.76%
CC(C)COc1ccc(C(=O)Nc2cc(-c3ccccc3)no2)cc1 15%
O=C(Cn1cnc2ccccc2c1=O)NCCC(=O)Nc1ccc(F)cc1 12.2% [at 11.5 µM]
COc1cccc(N2CCN(S(=O)(=O)c3cc(-c4cc(C)no4)ccc3C)CC2)c1 -3.52%
CCCCN(CC)CCCNC(=O)Cn1ncc2c([nH]c3ccc(C)cc32)c1=O 7.21%
O=c1c2cn[nH]c2nc(SCc2c(F)cccc2F)n1-c1ccc(Cl)cc1 -11.7%
COc1ccc(N(CC(=O)N2CCN(c3ccc(F)cc3)CC2)S(=O)(=O)c2c(C)noc2C)cc1 -26.5%
Cc1ccc(/C=C/C(=O)Nc2ccccc2C(N)=O)o1 60.3%
COc1cc(OC)cc(-c2nc3n(n2)C(c2ccccc2)C(C(N)=O)=C(C)N3)c1 (stereo unspecified) -6.9%
CC(C)(C)OC(=O)N1CCC(c2c(C(=O)NCCc3ccccc3)cnn2-c2ccc(F)cc2F)CC1 -5.33%
Cc1ccc(CCNC(=O)c2c(C)oc3ncn(CC(C)C)c(=O)c23)cc1 -9.08%
COc1ccc(-c2c(C)c3ccc(O)c(CN4CCN(CCO)CC4)c3oc2=O)cc1OC -13.3%
Cn1c(=O)oc2cc(S(=O)(=O)N3CCC(C(=O)N4CCN(c5ccccc5F)CC4)CC3)ccc21 -17.6%
O=C(Nc1ncc([N+](=O)[O-])s1)c1cccs1 -26%
COc1ccc(C(=O)NCc2ccc(OCCN(C)C)cc2)cc1OC 5.46%
Cc1ccc(C)c(N2CCN(C(=O)CSCc3ccccc3Cl)CC2)c1 -20.2%
Cc1cccc(NC(=O)CCS(=O)(=O)c2cc(Br)cc3c2N(C(=O)C2CC2)CC3)c1 -10.4%
Cc1ccc(CNC(=O)CC2Oc3ccc(Cl)cc3NC2=O)cc1 (stereo unspecified) -3.63%
CC(=O)Nc1ccccc1-c1nc2ccccc2n(CC(=O)Nc2cccc(C(F)(F)F)c2)c1=O -25.2%
Cc1ccc(CO)cc1Nc1ncnc2onc(-c3ccc(F)cc3)c12 -13.7%
CCS(=O)(=O)N1CC(=O)N(c2ccc(Cl)cc2)C(C)(C(=O)NC2CCCCC2)C1 (stereo unspecified) 4.77%
CCOc1cccc2cc(S(=O)(=O)c3ccccc3F)c(=O)oc12 -28.8%
CCOc1ccc(CNC(=O)c2ccc3c(c2)nc2n3CCOC2)cc1OC -9.57%
CCc1cccc(NC(=O)C(Cc2ccccc2)n2cccc2)c1 (stereo unspecified) -27.3%
COc1ccc(N2CC(NC(=O)c3ccc(S(=O)(=O)N4CCCCC4)cc3)CC2=O)cc1 (stereo unspecified) -29.9%
CC1=C(C(=O)Nc2ccc(F)cc2F)C2(CCN(C(C)C)CC2)OC1=O -1.53%
CCCOc1cccc(C(=O)Nc2cc(-c3ccccc3)no2)c1 34.7%
CCC1Oc2ccc(Cl)cc2N(CC(=O)NCCc2ccc(Cl)cc2)C1=O (stereo unspecified) -16%
CCCN1Cc2cccc(C(=O)Nc3cccc(C(=O)OCC)c3)c2C1=O -8.96%
CCc1cccc(C)c1NC(=O)Cn1nc(C)c2nn(-c3ccc(Cl)cc3)c(C)c2c1=O -27.4%
COc1ccccc1C(=O)Nc1ccc2oc(-c3cccc4c(Br)cccc34)nc2c1 -7.45%
O=C(Cc1csc2nc(-c3ccc(F)cc3)cn12)NCc1ccccc1 19.2%
O=[N+]([O-])c1cc(-c2nc(-c3ccccc3)no2)ccc1NC1CCCCC1 -13.3%
C=Cc1ccc(Cn2c(C)c(CNCc3ccccc3C)c(C(=O)O)c2C)cc1 -5.29%
COc1ccccc1CNC(=O)CCn1c(=O)c2cccn2c2cccnc21 -0.396%

Source: PubChem BioAssay AID1508623 (National Center for Advancing Translational Sciences (NCATS), 2021)
